Measurements taken from PMC6919601, “Identification of Plasmodium dipeptidyl aminopeptidase allosteric inhibitors by high throughput screening” (PLoS ONE, 2019).
The whole screen tested about 110,000 compounds, of which about 230 (0.21%) showed an effect of 50% or more. The list shows a part of the results.

Molecular target: DPAP1 (Plasmodium falciparum, UniProt Q8IIJ9)
Assay: primary screen, percent inhibition; read by cleavage of a fluorogenic dipeptide substrate; higher = more effect of the substance
Parameters: species or system P. falciparum D10 trophozoite lysates; single well
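Note: 30 min substrate incubation versus DMSO and 10 µM JCP410 controls.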

Chain of DPAP1 (Q8IIJ9 whole entry, looked up): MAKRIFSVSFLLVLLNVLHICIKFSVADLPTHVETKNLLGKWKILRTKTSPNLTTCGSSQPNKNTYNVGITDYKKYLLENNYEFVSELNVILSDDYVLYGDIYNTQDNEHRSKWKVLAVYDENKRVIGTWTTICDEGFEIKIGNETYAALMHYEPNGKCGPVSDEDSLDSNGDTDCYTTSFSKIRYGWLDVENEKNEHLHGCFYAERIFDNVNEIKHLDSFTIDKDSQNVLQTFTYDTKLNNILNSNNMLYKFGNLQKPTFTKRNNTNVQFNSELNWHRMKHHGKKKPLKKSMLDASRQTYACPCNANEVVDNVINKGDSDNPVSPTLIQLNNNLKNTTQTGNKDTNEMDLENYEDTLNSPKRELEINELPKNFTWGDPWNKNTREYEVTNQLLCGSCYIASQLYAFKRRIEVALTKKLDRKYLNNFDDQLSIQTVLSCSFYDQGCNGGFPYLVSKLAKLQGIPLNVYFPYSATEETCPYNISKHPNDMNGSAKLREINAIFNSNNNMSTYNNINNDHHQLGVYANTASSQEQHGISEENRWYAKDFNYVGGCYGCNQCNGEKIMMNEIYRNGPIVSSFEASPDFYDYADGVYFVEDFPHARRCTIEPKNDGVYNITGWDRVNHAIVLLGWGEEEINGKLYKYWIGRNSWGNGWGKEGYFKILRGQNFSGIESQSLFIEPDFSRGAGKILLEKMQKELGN

Row | Structure (SMILES) | % Inhibition @ 10 uM [%]
1 | CC(C)c1ccc(CN2CCOCC2)cc1 | 4.8
2 | COc1cc2nc(NC3CCCCC3)n3nc(-c4ccccc4)nc3c2cc1OC | -6.07
3 | Cc1cc(=O)oc2ccc(NC(=O)C(CCCN=C(N)N)NC(=O)C3(NC(=O)c4ccc(-c5csc(N6CCN(C)CC6)n5)cc4)CCCCC3)cc12 (stereo not drawn) | 4.63
4 | COc1ccc(/C=N\n2nnc3ccccc32)cc1 | 3.81
5 | COc1ccc(/C=C2\C(=N)N3N=C(N4CCOCC4)SC3=NC2=O)cc1 | -7.18
6 | CCC(=O)N(Cc1ccc2c(c1)OCO2)C1CC(=O)N(c2ccc(Br)cc2)C1=O (stereo not drawn) | 0.231
7 | O=C(COc1ccc2ccccc2c1)Nc1ccc(S(=O)(=O)N2CCCC2)cc1 | -0.366
8 | Cc1c(Cl)cccc1NC(=O)CN(c1cccc(F)c1)S(C)(=O)=O | 1.02
9 | CC1CC(C)CN(C(=O)CCCOc2ccc(Cl)cc2Cl)C1 (stereo not drawn) | 0.215
10 | O=C(Nc1ncc2c(n1)CC(c1ccco1)CC2=O)c1ccccc1 (stereo not drawn) | -4.76
11 | Cc1c(C(=O)NC2CCCC2)cccc1[N+](=O)[O-] | 0.311
12 | CCOC(=O)c1c(-c2ccc(Br)cc2)csc1NC(=O)c1sc(C)nc1C | 4
13 | O=C(NCCc1c[nH]c2ccccc12)C1CCN(c2ccc(N3CCOCC3)nn2)CC1 | 1.91
14 | Cc1ccc(NC(=O)/C=C/c2ccc3c(c2)OCO3)c(C)c1 | -5.32
15 | O=C(O)c1nccnc1C(=O)Nc1ccc(Cl)cc1Cl | 1.29
16 | CCCCNC(=O)CSc1nc(NCC2CCCO2)c2ccccc2n1 (stereo not drawn) | -0.801
17 | CCOc1ccc(C2C(C(=O)c3ccc(F)cc3)=C(O)C(=O)N2CC2CCCO2)cc1OC (stereo not drawn) | -13.5
18 | COc1ccc(C)cc1NC(=O)c1ccc(Br)cc1 | 1.39
19 | O=C1/C(=C/c2ccc(O)c(O)c2)Sc2ccccc21 | 22
20 | CCN1CCCC1CNC(=O)CN1C(=O)CSc2nc(C)cc(C)c21 (stereo not drawn) | -6.01
21 | COc1ccc(-c2cc(CCCC(=O)NCc3ccco3)no2)cc1 | 2.12
22 | COC(=O)c1[nH]cnc1C(=O)NC1CC(C)(C)NC(C)(C)C1 | -3.75
23 | CC1=C(c2ccc(C)cc2)S(=O)(=O)N=C1NCCCN(Cc1ccccc1)C(C)C | -4.68
24 | CC(CNC(=O)c1nnc(Cc2ccc(Cl)cc2)o1)c1ccccc1 (stereo not drawn) | -2.19
25 | CCOc1ccccc1NC(=O)Nc1ccc(Cl)cc1 | -1.36
26 | CCC(C)NC(=O)C1CCN(S(=O)(=O)c2c(C)noc2/C=C\c2ccc(OC)cc2)CC1 (stereo not drawn) | -1.28

Row | Structure (SMILES) | % Inhibition @ 10 uM [%]
27 | CCc1ccc(C2C3=C(O)CCCC3=NC(C)=C2C(=O)OC)s1 (stereo not drawn) | 4.52
28 | COC(=O)C1=C(O)/C(=C\c2cc3c(cc2Br)OCO3)N=C1C | -5.26
29 | Cc1cccc2c1-c1sc(C(=O)Nc3cccnc3)cc1CO2 | -4.85
30 | Cc1cc(-c2ccc(S(=O)(=O)NCc3ccccn3)s2)on1 | 3.9
31 | COc1ccc(Nc2oc(COc3ccc(OC)cc3)nc2C#N)cc1 | 0.446
32 | Cc1c(C(=O)NC2CCCCC2)c(C)n2cnn(CC(=O)NCCCN3CC(C)CC(C)C3)c(=O)c12 (stereo not drawn) | 1.72
33 | COc1c(O)cnn(Cc2ccccc2)c1=O | -6.12
34 | Cc1cccc(OCC(=O)NC2CCCCCC2)c1C | 0.83
35 | O=[N+]([O-])c1ccc(CN2CCC(Cc3ccccc3)CC2)cc1 | -0.34
36 | CCOc1ccc(CCNC(=O)c2oc3c(c2C)-c2n[nH]cc2CC3)cc1OCC | -4.68
37 | CCOc1c(/C=C(\C#N)C(N)=O)c2ccccc2n1-c1c(Cl)cccc1Cl | 1.9
38 | O=C(CSc1ncnc2sc3c(c12)CCCC3)Nc1ccc2c(c1)OCCO2 | 0.528
39 | Cc1nc2scc(C)n2c(=O)c1S(=O)(=O)N1CCC(Cc2ccccc2)CC1 | -5.67
40 | O=C(NCCC12CC3CC(CC(C3)C1)C2)c1csc2ccccc12 | -5.27
41 | Oc1ccc2ccccc2c1CN1CC=C(c2ccc(F)cc2)CC1 | -7.18
42 | c1cc(CN2CCSCC2)ccn1 | -7.34
43 | CC12CN3CN(C1)CC(C)(C3)C2NC(=S)Nc1ccccc1 (stereo not drawn) | 1.4
44 | CCOc1ccc(-c2nc(SCC(=O)NCCCOC)c(-c3ccc(F)cc3)[nH]2)cc1 | -1.58
45 | O=C(NCC1CCCO1)c1cc2n(n1)C(C(F)(F)F)CC(c1ccc(F)cc1)N2 (stereo not drawn) | 2.38
46 | N#C/C(C(N)=O)=C1/CCCN1Cc1ccccc1 | 1.9
47 | CCOc1ccccc1NC(=O)COc1ccc(C)c(C)c1 | -6.64
48 | O=C(c1ccc(CSc2nc3ccncc3n2Cc2ccc(F)cc2)cc1)N1CCOCC1 | -2.37
49 | Cc1cc(=O)n2nc(N(C)CC(=O)NCCCc3ccccc3)sc2n1 | -2
50 | COc1ccc(OC)c(CCNC(=O)CCCn2nc(C)c3sc4ccccc4c3c2=O)c1 | -6.64
51 | Cc1ccccc1C(=O)Nc1c2c(nc3ccccc13)CCCC2 | -1.43
52 | NC(=O)CSc1nc2ccccc2n1C1CCCCC1 | 1.16

Row | Structure (SMILES) | % Inhibition @ 10 uM [%]
53 | Cc1ccc(N2C(=O)CSC2c2ccc(Cl)cc2)cc1 (stereo not drawn) | 1.43
54 | Cc1ccc2nc3c(cc(C#N)c(=N)n3CCN3CCOCC3)c(=O)n2c1 | 1.76
55 | Cc1c(OCC(=O)O)ccc2c(-c3ccccc3)cc(=O)oc12 | 9.21
56 | CC(CN1CCCCC1)C(=O)c1ccccc1 (stereo not drawn) | -8.61
57 | CCC(C(=O)O)n1sc2ccccc2c1=O (stereo not drawn) | -1.75
58 | O=C(Nc1ccc(-c2cc3ccccc3oc2=O)cc1)c1ccccc1F | 2.94
59 | COc1ccc(NC(=O)CN2CCN(CC#N)CC2)cc1 | 0.231
60 | Cc1cccc(NC(=O)c2cnoc2C)c1C | -1.61
61 | O=C(CCC(=O)N1Cc2ccccc2Oc2ncccc21)N1CCN(c2ccccn2)CC1 | 5.82
62 | CCOC(=O)c1cnc(SCc2ccccc2F)nc1N | -6.36
63 | CSc1cccc(NC(=O)CNS(=O)(=O)c2ccccc2)c1 | -4.4
64 | Cc1ccccc1OCc1nc(-c2ccc(-n3cccc3)cc2)no1 | -7.38
65 | CCOc1ccc2nc(N3CCCC(C(=O)N4CC(C)CC(C)C4)C3)sc2c1 (stereo not drawn) | 1.8
66 | Cc1nn(C(C)C(=O)O)c2ccccc12 (stereo not drawn) | 0.0198
67 | COc1ccccc1/C=C/c1nc(C#N)c(NCc2ccc(F)cc2)o1 | -6.29
68 | COc1ccc(OC)c(/C=C2\N=C(c3cc(Cl)ccc3Cl)OC2=O)c1 | -2.6
69 | Cc1ccccc1S(=O)Cc1ccc(C(=O)N2CCN(C(=O)c3ccco3)CC2)o1 (stereo not drawn) | 2.83
70 | COc1ccc(CNC(C)C2COc3ccccc3O2)c(OC)c1 (stereo not drawn) | -3.23
71 | CC(C)c1ccc(/C=C/C(=O)O)cc1 | -1.86
72 | FC(F)(F)c1cc(N2CCOCC2)nc(-c2ccccc2)n1 | 1.91
73 | O=C1c2cccnc2C(=O)N1Cc1ccc(F)cc1S(=O)(=O)N1CCN(C2CCCCC2)CC1 | 7.41
74 | Cc1ccc(C(=O)N/C(=C/c2ccc(Cl)cc2)C(=O)N2CCOCC2)cc1 | -1.52
75 | O=C1NC2(CCCCCC2)Cc2ccccc21 | 2.65
76 | CCn1c(C)nc2cc(S(=O)(=O)N3CCOCC3)ccc21 | -6.69
77 | COc1ccc(Cn2c(=O)oc3ccc(C)cc32)cc1OC | 0.983
78 | c1cncc(CNC23CC4CC(CC(C4)C2)C3)c1 | 4

Row | Structure (SMILES) | % Inhibition @ 10 uM [%]
79 | CN(C)c1nc(NC(C)(C)C)nc(NC(C)(C)C)n1 | -5.7
80 | CC1CCN(C(=O)CCc2nnc3n(CCc4ccccc4)c(=O)c4ccccc4n23)CC1 | 0.981
81 | Cc1ccccc1Cc1nc2ccccc2nc1O | -1.16
82 | Cc1cc(S(=O)(=O)N2CCC(n3c(O)nc4ccccc43)CC2)ccc1-n1cnnn1 | -0.671
83 | C#CCN1C(=O)c2ccccc2S1(=O)=O | 1.72
84 | COc1cccc(NC(=O)c2cccc(Cl)c2)c1 | 3.53
85 | CCc1nn(CC(=O)N2C(C)CCCC2C)c(=O)c2cc3occc3n12 (stereo not drawn) | -2
86 | O=S(=O)(Nc1cccnc1)c1ccc2[nH]c3c(c2c1)CCCCC3 | 3.2
87 | COc1ccc(NCc2cc(Br)c(OC)c(OC)c2)cc1 | 6.01
88 | CCOc1ccc2nc(N3CCC(C(=O)NCCN4CCCCC4C)CC3)sc2c1 (stereo not drawn) | 0.137
89 | c1ccc(OCCCCn2cnc3ccccc32)cc1 | 4.3
90 | Cc1c(C(=O)NCc2cccnc2)sc2nc(-c3ccc(F)cc3)cn12 | 1.55
91 | CC(C)CNS(=O)(=O)c1ccc(CCC(=O)N2CCN(c3ccccc3)CC2)cc1 | 3.49
92 | COc1ccc2c(c1)sc1nc(C)c(CCO)c(=O)n12 | 5.42
93 | COc1ccc(C(=O)NC2CCCCC2)cc1 | 2.36
94 | CC(C)COC(=O)C1CN1C(C)(C)CO (stereo not drawn) | -1.59
95 | Cc1ccc(S(=O)(=O)NCC(=O)N2CCN(c3ccccc3F)CC2)cc1 | 3.91
96 | Cc1cc2ccccc2n1CCNC(=O)c1cc2ccccc2oc1=O | 0.8
97 | O=C1CC(N2CCCC2)C(=O)N1c1ccc(F)cc1 (stereo not drawn) | -3.19
98 | CC(C)(C)OC(=O)N1CCN(c2ncnc3[nH]cnc23)CC1 | 3.51
99 | CCOc1cccc(N2C(=O)CC(NCCc3ccc(S(N)(=O)=O)cc3)C2=O)c1 (stereo not drawn) | 6.79
100 | CC1=C(C(=O)Nc2ccc(C)cn2)C(c2c(F)cccc2Cl)C2=C(O)CC(C)(C)CC2=N1 (stereo not drawn) | 4.11
101 | Cc1nc2scc(C)n2c(=O)c1S(=O)(=O)NCCC1=CCCCC1 | 3.59
102 | C=CCn1c(=O)c(C(=O)Nc2ccc(Cl)cn2)c(O)c2ccccc21 | -3.71
